Data taken from article PMC12040169 (PLOS Biology, 2025).
The list shows a part of the results.

These molecules were tested on T1, C. trachomatis L2/434/Bu expressing GFP (CTL2-GFP). Conditions: total inclusion area; 28.5 h, 10 µM; inhibitor.
T1 construct: L2/434/Bu GFP intracellular growth in HeLa cells
Set-up: species or system HeLa; C. trachomatis total inclusion area by high-content imaging, normalised to DMSO
How it was run: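 Host cell viability was gauged from Hoechst-stained nuclei counts, while chlamydial growth was taken from total inclusion area and inclusion number per well. Cells were fixed and imaged by high-content microscopy once bulk GFP and resorufin fluorescence had been measured.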

SMILES	% of control remaining
CCC(C)(C)c1ccc(S(=O)(=O)N2CCCN(Cc3c[nH]c(=O)[nH]c3=O)CC2)cc1 [CBK062881]	109.412
CC(NC(=O)C1CCN(CCc2ccccc2)CC1)c1ccccc1 (centres unmarked) [CBK148612]	105.625
Cc1ccnn1CCC(=O)N1CCC(c2cc3cccnc3[nH]2)CC1 [CBK284912]	109.03
N#C/C(=C(/O)c1ccc(-c2ccc([N+](=O)[O-])cc2Cl)o1)c1nc(-c2ccc(F)cc2)cs1 [CBK266742]	126.505
CS(=O)(=O)c1ccc(-c2cnc(N)c(NCCCO)n2)cc1 [CBK063587]	161.752
O=C(NCCn1nc(-c2ccco2)ccc1=O)c1cccs1 [CBK283704]	97.3371
O=C(Nc1ncccc1O)c1c(O)c2ccccc2n(Cc2ccccc2)c1=O [CBK291211]	94.4376
CC(C)C(=O)N1CCCC(c2cc3cccnc3[nH]2)C1 (centres unmarked) [CBK284994]	86.8637
COc1ccc(-c2ccc3c(c2)OC2(CCN(C(=O)c4cc(OC)c(C)c(OC)c4)CC2)CC3=O)cn1 [CBK169424]	93.2769
COc1ccc(C(=O)N2CCC3(CCCN(C(=O)c4ccco4)C3)C2)cc1OC (centres unmarked) [CBK131647]	68.1943
COc1cccc(NC(=O)N2CCC3(CC2)NC(=O)c2cc(-c4ccoc4)ccc2O3)c1 [CBK115855]	97.0169
Cc1cc(N2CCN(C(=O)CCc3ccccc3)CC2)nc(C(C)C)n1 [CBK305711]	88.5086
CCCC(=O)NC(c1ccccn1)C1CCC(CNC(C)=O)CC1 (centres unmarked) [CBK283080]	86.5786
CCC1CCCCN1C(=O)c1ccc(-c2ccccc2)s1 (centres unmarked) [CBK074215]	106.055
COc1ccccc1CC(c1ccccc1)C1CN(C)CCO1 (centres unmarked) [CBK009925C]	62.7661
O=C(Nc1cccc(Cl)c1)Nc1ccc(C(=O)O)c(O)c1 [CBK269518]	100.259
O=C(Cc1ccc(Cl)c(Cl)c1)N1CCCC2(CCN(C(=O)c3ccoc3)C2)C1 (centres unmarked) [CBK131619]	93.5736
N#Cc1ccccc1N1CCN(c2ccc(-c3ccccc3)cn2)CC1 [CBK037590]	87.338
CC(=O)Nc1ccc2nc(Nc3nc4c(F)cccc4s3)sc2c1 [CBK287475]	173.876
c1ccc(-c2cn3ccnc3c(N3CCN(c4ccncc4)CC3)n2)cc1 [CBK066177]	111.181
CCN(C)CC(=O)N1CCC(Oc2cc(C)ccc2F)(C(=O)O)CC1 [CBK307020]	57.1241
Cc1cc(C(=O)O)ccc1-c1ccc(/C=C/c2[nH]c(=O)[nH]c(=O)c2[N+](=O)[O-])o1 [CBK266998]	117.611
Cc1ccc(S(=O)(=O)NCC(=O)O)cc1[N+](=O)[O-] [CBK034459]	100.141
COc1cc(NS(=O)(=O)c2ccccc2)c(Cl)cc1C(=O)O [CBK286564]	80.3869
CC(=O)N1CC(C(=O)Nc2nc3c(C)cc(C)cc3s2)C1 [CBK281372]	113.429
C=CCSc1nc2ccccc2c(=O)n1CCc1ccccc1 [CBK055285]	90.0254
COc1ccccc1NC(=O)CSc1nc(O)c2c(C)cc(C)nc2n1 [CBK266095]	100.986

SMILES	% of control remaining
CC(=O)Nc1cccc(NC(=O)CN(CCO)C2CCCCC2)c1 [CBK304239]	77.1394
CC1CCN(C(=O)CCn2c(C(F)F)cc3cccnc32)CC1 [CBK284982]	96.7999
Cc1ccc(SCCC(=O)NC(CC(=O)O)C(=O)O)cc1 (centres unmarked) [CBK295174]	108.109
CCOC(=O)c1ccc(NC(=O)Cc2c(C(=O)O)nnn2-c2cccc(C(F)(F)F)c2)cc1 [CBK296932]	89.7229
O=C(O)CCNS(=O)(=O)c1cccc(F)c1 [CBK267264]	92.8684
CC(C)c1n[nH]c(=S)n1C1CCc2ccccc21 (centres unmarked) [CBK288374]	36.8127
CS(=O)(=O)Nc1ccc(C(=O)NCCN2CCOCC2)cc1 [CBK269781]	84.5724
CCOc1ncccc1C(=O)NCc1ccc(COCC(F)(F)F)cc1 [CBK304526]	28.1263
CCN(CC(=O)N1CCN(C)CC1)S(=O)(=O)c1cc(Cl)ccc1Cl [CBK269297]	69.4539
O=C(CN1CCC(Cc2ccccc2)CC1)Nc1ccc(F)c(Cl)c1 [CBK126387]	103.787
CCCC/C=C/c1cn2ccnc2c(N2CCOCC2)n1 [CBK038031]	138.008
c1ccc(CN2CCN(c3nccnc3OCc3cccnc3)CC2)cc1 [CBK083129T]	96.171
C#CCOc1cccc2oc(CCC)cc(=O)c12 [CBK005628]	45.1922
CN1CCC2(CCC1=O)CC(N)c1ccccc1O2 (centres unmarked) [CBK284456]	56.6392
COc1ccccc1N1CCN(c2ccc([N+](=O)[O-])cc2C(=O)O)CC1 [CBK286692]	49.4513
O=S1(=O)CCN(CC2COc3ccccc3O2)CC1 (centres unmarked) [CBK074789]	110.453
COc1ccc(Cl)cc1NC(=O)CN(c1ccccc1)S(=O)(=O)c1ccc(Cl)cc1 [CBK265261]	96.6662
O=C(c1cncnc1)N1CCC2(CCN(C(=O)c3ccoc3)C2)C1 (centres unmarked) [CBK131755]	54.7316
OCCc1ccc(Nc2cc(-c3cc4ccccc4s3)ncn2)cc1 [CBK090770]	79.7497
O=C(NCCOc1ccccc1Cc1ccccc1)c1cncc(Br)c1 [CBK266581]	106.598
O=C1NCCN1c1cccc(Cl)c1 [CBK016915]	72.1131
CCN(CC)CCN(Cc1cc2ccc(C)cc2[nH]c1=O)C(=O)Nc1ccc(Cl)cc1 [CBK068680]	92.3627
O=C(Cc1c[nH]c2ccccc12)N1CCC2(CCCN(C(=O)c3cccc(C(F)(F)F)c3)C2)C1 (centres unmarked) [CBK131578]	114.694
O=C1CCC(=O)N1CCOc1nccnc1N1CCN(CCc2ccc3ccccc3c2)CC1 [CBK084307]	100.456
Cc1ccc(C2CCCN2C(=O)c2ccc(=O)n(CC(=O)N(C)c3ccccc3)c2)cc1C (centres unmarked) [CBK285653]	103.318
COc1ccc2c(c1)c(C(=O)N1CC(C)(C)C(C)(O)C1)c(C)n2C (centres unmarked) [CBK306896]	77.8614
COc1cc(/C=N/NC(=O)CCN2CCN(C)CC2)cc2c1OCO2 [CBK261504]	97.436

SMILES	% of control remaining
O=C(O)c1cccc(-c2cn3ccnc3c(N3CCOCC3)n2)c1 [CBK038053]	134.119
COc1ccc(S(=O)(=O)N(CC(=O)Nc2ccc3c(c2)OCCO3)c2ccc(F)cc2)cc1 [CBK268584]	101.269
O[C@H]1CN[C@H](c2nc(-c3ccc(OC(F)(F)F)cc3)no2)C1 [CBK288836]	107.717
O=C(Cn1nc(C(=O)O)c2ccccc2c1=O)c1ccc(C2CCCCC2)cc1 [CBK297538]	100.365
CCOc1cccc(-c2cn3ccnc3c(NCc3cc(OC)c(OC)c(OC)c3)n2)c1 [CBK066717]	88.1743
COc1cc(C=C2SC(=S)N(CCCCCC(=O)O)C2=O)cc(OC)c1 [CBK297505]	106.816
Cc1noc(C)c1CS(=O)(=O)Cc1ccc(Cl)cc1 [CBK034194]	48.7163
COc1ccc(-c2cc(=O)[nH]c(=S)s2)cc1 [CBK288355]	105.284
CC(C)(C)NC(=O)c1nn2c(c1Br)NC(c1cccs1)CC2C(F)(F)F (centres unmarked) [CBK307175]	75.6689
Cc1ccc(CS(=O)(=O)NCCn2nc(C)c(C)c2C)cc1 [CBK281383]	99.8173
CCn1c(SCC(=O)c2ccc(F)cc2)nnc1C(C)Oc1ccccc1 (centres unmarked) [CBK269695]	73.5229
Cc1ccsc1CN(CCCO)Cc1cn(C)nc1C [CBK282983]	94.7342
c1cc2c(cc1-c1nn3cnnc3s1)OCCO2 [CBK287866]	81.069
Nc1ccc2cc(-c3ccsc3)cnc2n1 [CBK081167]	90.5904
Oc1cccc(-c2cn3ccnc3c(NC3CC3)n2)c1 [CBK038076]	74.199
COc1cc(CNc2cncc(-c3cccc(NC(C)=O)c3)n2)cc(OC)c1OC [CBK066133]	127.239
Cc1nc(C)c(C(=O)N2CCCC(c3cc4cccnc4[nH]3)C2)s1 (centres unmarked) [CBK284995]	96.5753
CC(C)CN1CCC2(CC=CCN(Cc3ccc(F)cc3)C2=O)CC1 [CBK285521]	93.8014
COc1ccc(Cc2cccc(C3CCN(C(=O)Cc4ccc(F)cc4)CC3)n2)cc1 [CBK286225]	92.5949
Cn1c(=O)n(CC(=O)OCc2ccccc2)c2cccnc21 [CBK284019]	75.0599
Cc1ccc(C)c(NC(=O)C(C)Sc2nc3ccccc3nc2C)c1 (centres unmarked) [CBK296744]	98.8137
CN1CCN(c2ccc(S(=O)(=O)Nc3cc(C(=O)O)cc(C(=O)O)c3)cc2[N+](=O)[O-])CC1 [CBK263862]	92.1799
N#Cc1cnc2ccccc2c1N1CCC(C(=O)O)CC1 [CBK288050]	94.4901
CC1=NN(c2ccccc2)C(=O)/C1=C1/C(=O)Nc2c(C)cc(Br)cc21 [CBK263950]	116.601
Cc1n[nH]c(C)c1Sc1n[nH]c(=O)[nH]c1=O [CBK027833]	76.1667
Cc1cc(Cl)cc(Cl)c1S(=O)(=O)Nc1nc(-c2cccnc2)cs1 [CBK200035]	67.5383
